# Assay results as given in the supplement of paper PMC4604168 (melanoma cell lines).
# Some of the results follow. Many values rest on one well or one pass, so single values are uncertain.
# Tested on: A101D
# Test: cell count relative to DMSO control; melanoma cells; higher = more viable cells
# Details: library dose: low library concentration; 72 h
# 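Further: cell number obtained by counting DAPI-stained nuclei in high-throughput microscope images with image analysis software, screen run in 1,536-well plates.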
row,Structure (SMILES),cell count [%]
1,"CN(c1ncccc1CNc1nc(Nc2ccc3c(c2)CC(=O)N3)ncc1C(F)(F)F)S(C)(=O)=O + COc1ccc2c(c1)CCC1C2CCC2(C)C(NCCCCCCN3C(=O)C=CC3=O)CCC12 [U73122] (first compound 0.08 µM, partner dose 0.4 µM)",94
2,"CCCS(=O)(=O)Nc1ccc(F)c(C(=O)c2c[nH]c3ncc(Cl)cc23)c1F + CCCCCCCCCCCC1=C(O)C(=O)C=C(O)C1=O [Embelin] (first compound 0.08 µM, partner dose 1.2 µM)",90.1
3,"CN(c1ncccc1CNc1nc(Nc2ccc3c(c2)CC(=O)N3)ncc1C(F)(F)F)S(C)(=O)=O + Oc1nc(-c2ccc(C(F)(F)F)cc2)nc2c1CSCC2 [XAV939] (first compound 0.08 µM, partner dose 2 µM)",92
4,"NC1(c2ccc(-c3nc4ccn5c(=O)[nH]nc5c4cc3-c3ccccc3)cc2)CCC1 + COc1ccc2c(c1)CCC1C2CCC2(C)C(NCCCCCCN3C(=O)C=CC3=O)CCC12 [U73122] (first compound 0.4 µM, partner dose 0.4 µM)",85.8
5,"C=C(c1ccc(C(=O)O)cc1)c1cc2c(cc1C)C(C)(C)CCC2(C)C [Bexarotene] + O=C1NC(=O)/C(=C/c2ccc(-c3ccc(F)cc3O)o2)S1 [AS252424] (first compound 2 µM, partner dose 1 µM)",92.9
6,"CN(c1ncccc1CNc1nc(Nc2ccc3c(c2)CC(=O)N3)ncc1C(F)(F)F)S(C)(=O)=O + COc1cc(N2CCC(N3CCN(C)CC3)CC2)ccc1Nc1ncc(Cl)c(Nc2ccccc2S(=O)(=O)C(C)C)n1 [NVP-TAE684] (first compound 0.08 µM, partner dose 0.08 µM)",95.3
7,"CN(c1ncccc1CNc1nc(Nc2ccc3c(c2)CC(=O)N3)ncc1C(F)(F)F)S(C)(=O)=O + O=c1cc(-c2cccc3c2Sc2ccccc2S3)oc(N2CCOCC2)c1 [KU55933] (first compound 0.08 µM, partner dose 1 µM)",97.3
8,"CN(c1ncccc1CNc1nc(Nc2ccc3c(c2)CC(=O)N3)ncc1C(F)(F)F)S(C)(=O)=O + N#Cc1c(O)c2c(-c3ccc(-c4ccccc4O)cc3)csc2[nH]c1=O [A769662] (first compound 0.08 µM, partner dose 2 µM)",84.1
9,"CCCS(=O)(=O)Nc1ccc(F)c(C(=O)c2c[nH]c3ncc(Cl)cc23)c1F + Oc1cc(-c2nc(-c3ccccc3)[nH]c2-c2ccncc2)ccc1Cl [L779450] (first compound 0.08 µM, partner dose 0.2 µM)",97.8
10,"NC1(c2ccc(-c3nc4ccn5c(=O)[nH]nc5c4cc3-c3ccccc3)cc2)CCC1 + O=C(O)C(=O)Nc1sc2c(c1C(=O)O)CCNC2 [TCS401] (first compound 0.4 µM, partner dose 1.66667 µM)",92.2
11,"CN(c1ncccc1CNc1nc(Nc2ccc3c(c2)CC(=O)N3)ncc1C(F)(F)F)S(C)(=O)=O + Cn1cc(/C=C2\C(=O)Nc3cccnc32)c2ccccc21 [GW441756] (first compound 0.08 µM, partner dose 0.4 µM)",90.5
12,"CS(=O)(=O)c1ccc(C(=O)Nc2ccc(Cl)c(-c3ccccn3)c2)c(Cl)c1 [vismodegib] + COc1cc2ncnc(Nc3ccc(Oc4ccccc4)cc3)c2cc1OC [SrcI1] (first compound 1 µM, partner dose 2 µM)",98.1
13,"NC1(c2ccc(-c3nc4ccn5c(=O)[nH]nc5c4cc3-c3ccccc3)cc2)CCC1 + COc1ccc(-c2ccc3c(N4CCOCC4)nc(N4C[C@@H](C)O[C@@H](C)C4)nc3n2)cc1CO [KU0063794] (first compound 0.4 µM, partner dose 0.02 µM)",93.1
14,"CN(c1ncccc1CNc1nc(Nc2ccc3c(c2)CC(=O)N3)ncc1C(F)(F)F)S(C)(=O)=O + O=C1NC(=O)/C(=C/c2ccc(-c3ccc(F)cc3O)o2)S1 [AS252424] (first compound 0.08 µM, partner dose 1 µM)",85.1
15,"CS(=O)(=O)c1ccc(C(=O)Nc2ccc(Cl)c(-c3ccccn3)c2)c(Cl)c1 [vismodegib] + COc1ccc(COc2ccc(Cc3cnc(N)nc3N)cc2OC)cc1 [GW2580] (first compound 1 µM, partner dose 1 µM)",101
16,"CS(=O)(=O)c1ccc(C(=O)Nc2ccc(Cl)c(-c3ccccn3)c2)c(Cl)c1 [vismodegib] + COc1ccc2c(c1)CCC1C2CCC2(C)C(NCCCCCCN3C(=O)C=CC3=O)CCC12 [U73122] (first compound 1 µM, partner dose 0.4 µM)",93.6
17,"NC1(c2ccc(-c3nc4ccn5c(=O)[nH]nc5c4cc3-c3ccccc3)cc2)CCC1 + Cn1cc(/C=C2\C(=O)Nc3cccnc32)c2ccccc21 [GW441756] (first compound 0.4 µM, partner dose 0.4 µM)",89.9
18,"C=C(c1ccc(C(=O)O)cc1)c1cc2c(cc1C)C(C)(C)CCC2(C)C [Bexarotene] + O=C(Nc1ccccc1)c1cc([N+](=O)[O-])ccc1Cl [GW9662] (first compound 2 µM, partner dose 2 µM)",102
19,"NC1(c2ccc(-c3nc4ccn5c(=O)[nH]nc5c4cc3-c3ccccc3)cc2)CCC1 + COC(=O)c1sccc1S(=O)(=O)Nc1ccc(Nc2ccccc2)cc1OC [GSK0660] (first compound 0.4 µM, partner dose 1 µM)",97
20,"CCCS(=O)(=O)Nc1ccc(F)c(C(=O)c2c[nH]c3ncc(Cl)cc23)c1F + O=C(O)C(=O)Nc1sc2c(c1C(=O)O)CCNC2 [TCS401] (first compound 0.08 µM, partner dose 1.66667 µM)",98
21,"CS(=O)(=O)c1ccc(C(=O)Nc2ccc(Cl)c(-c3ccccn3)c2)c(Cl)c1 [vismodegib] + O=C(O)C(=O)Nc1sc2c(c1C(=O)O)CCNC2 [TCS401] (first compound 1 µM, partner dose 1.66667 µM)",102
22,"C=C(c1ccc(C(=O)O)cc1)c1cc2c(cc1C)C(C)(C)CCC2(C)C [Bexarotene] + N#Cc1c(O)c2c(-c3ccc(-c4ccccc4O)cc3)csc2[nH]c1=O [A769662] (first compound 2 µM, partner dose 2 µM)",101
23,"C=C(c1ccc(C(=O)O)cc1)c1cc2c(cc1C)C(C)(C)CCC2(C)C [Bexarotene] + COc1ccc(-c2ccc3c(N4CCOCC4)nc(N4C[C@@H](C)O[C@@H](C)C4)nc3n2)cc1CO [KU0063794] (first compound 2 µM, partner dose 0.02 µM)",94.8
24,"CCCS(=O)(=O)Nc1ccc(F)c(C(=O)c2c[nH]c3ncc(Cl)cc23)c1F + COc1ccc(COc2ccc(Cc3cnc(N)nc3N)cc2OC)cc1 [GW2580] (first compound 0.08 µM, partner dose 1 µM)",88.5
